Data: article PMC4336329 (PLoS ONE, 2015)
Screen size: about 310,000 compounds; about 2,200 (0.71%) showed an effect of 50% or more. The effect is printed as a negative number. Some of the results follow.

Molecular target: human ether-à-go-go-related gene (hERG) potassium channel (human, UniProt Q12809)
Assay: primary screen, population patch clamp on CHO cells stably expressing hERG

Sequence of human ether-à-go-go-related gene (hERG) potassium channel (Q12809 whole entry, looked up): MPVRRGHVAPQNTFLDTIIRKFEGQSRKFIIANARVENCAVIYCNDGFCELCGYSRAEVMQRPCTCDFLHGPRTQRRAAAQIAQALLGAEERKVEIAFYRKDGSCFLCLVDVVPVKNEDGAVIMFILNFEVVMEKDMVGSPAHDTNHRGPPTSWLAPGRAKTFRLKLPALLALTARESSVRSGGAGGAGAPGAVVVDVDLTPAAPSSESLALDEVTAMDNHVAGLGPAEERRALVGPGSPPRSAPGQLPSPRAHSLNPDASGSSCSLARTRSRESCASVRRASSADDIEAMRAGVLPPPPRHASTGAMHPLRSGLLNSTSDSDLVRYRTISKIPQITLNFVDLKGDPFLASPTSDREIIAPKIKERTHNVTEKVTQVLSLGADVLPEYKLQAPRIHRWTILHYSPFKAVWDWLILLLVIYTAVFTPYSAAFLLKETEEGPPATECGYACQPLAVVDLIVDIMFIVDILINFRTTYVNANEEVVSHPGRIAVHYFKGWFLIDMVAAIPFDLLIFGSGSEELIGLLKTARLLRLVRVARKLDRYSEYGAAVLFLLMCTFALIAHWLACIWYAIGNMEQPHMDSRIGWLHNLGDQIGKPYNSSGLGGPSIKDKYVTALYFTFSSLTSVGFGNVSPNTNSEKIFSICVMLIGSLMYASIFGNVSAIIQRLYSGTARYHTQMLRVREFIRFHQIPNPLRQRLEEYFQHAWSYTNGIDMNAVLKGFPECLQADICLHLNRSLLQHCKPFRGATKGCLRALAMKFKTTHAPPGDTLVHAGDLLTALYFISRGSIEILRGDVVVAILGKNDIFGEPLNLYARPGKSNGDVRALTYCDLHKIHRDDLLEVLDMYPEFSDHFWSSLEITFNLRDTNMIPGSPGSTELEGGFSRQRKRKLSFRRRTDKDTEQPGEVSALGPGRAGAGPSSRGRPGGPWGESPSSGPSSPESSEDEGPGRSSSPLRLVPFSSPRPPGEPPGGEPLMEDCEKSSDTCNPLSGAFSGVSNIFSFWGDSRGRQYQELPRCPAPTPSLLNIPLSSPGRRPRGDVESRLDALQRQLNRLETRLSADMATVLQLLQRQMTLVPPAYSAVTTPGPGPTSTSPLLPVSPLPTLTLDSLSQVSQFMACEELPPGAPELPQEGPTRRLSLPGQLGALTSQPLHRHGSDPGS

Compound	hERG current change (%, negative = inhibition) at 1uM
CCCCC/C(=N\NC(=O)CCC(=O)NCc1ccccc1)c1ccccc1	8.86%
COc1ccc(N2C(=O)C3C(c4ccc(C(=O)O)cc4)NC(Cc4ccccc4)(C(=O)O)C3C2=O)c([N+](=O)[O-])c1 (centres unmarked)	3.69%
Cc1cc(=O)[nH]c(SCC(=O)NCc2ccc3c(c2)OCO3)n1	16.2%
COc1cc(S(=O)(=O)NC2CCCCC2)c(C)cc1C	2.42%
COc1ccc2c(c1)c(C(=O)O)c(C)n2-c1ccccc1	9.06%
CCOc1ccc(-n2c(SCC(N)=O)nnc2-c2cccnc2)cc1	-3.26%
O=C(Nc1nnc(C2CCCCC2)s1)C1CC(=O)N(c2ccc(F)cc2)C1 (centres unmarked)	9.09%
O=C(O)c1cc(NC(=O)c2ccc3c(c2)C(=O)N(Cc2ccccc2)C3=O)cc(C(=O)O)c1	11.7%
O=C(CSc1nnc2scc(-c3ccccc3)n12)NCC1CCCO1 (centres unmarked)	8.22%
CC(C)c1ccc(N(CC(=O)NCc2ccc(F)cc2)C(=O)c2csnn2)cc1	3.63%
O=c1[nH]c2ccsc2c(=O)n1-c1ccc(F)cc1	15.3%
CCOc1ccc(/C=N/NC(=O)C(OC)c2ccccc2)cc1 (centres unmarked)	10.2%
Cc1ccc(-c2cc(C(=O)Nc3nccs3)c3ccccc3n2)o1	9.83%
O=C(Nc1ncnc2sc3c(c12)CCCCC3)c1ccc(F)cc1	14.2%
COc1ccc(-c2cc(C(F)(F)F)nc(N3CCCCCC3)n2)cc1	7.55%
COc1ccc(C(=O)OCCN2CCOCC2)cc1.Cl	5.09%
O=C1c2ccccc2S(=O)(=O)N1Cc1c(F)cccc1Cl	1.17%
O=C(NC(=S)N1CCCCCC1)C1CC1	12.4%
CC(C)(C)C(=O)/C=C/Nc1ccccc1O	12.1%
COc1ccc(-c2cn(CC3CCCCC3)nn2)cc1	13.8%
CCc1cc(=O)oc2cc(C)cc(OCC(=O)N3CCC(C(=O)NC(C)C)(c4ccccc4)CC3)c12	0.682%
COCCNc1ccc([N+](=O)[O-])cc1C(=O)NC1CCCc2ccccc21 (centres unmarked)	-6.2%

Compound	hERG current change (%, negative = inhibition) at 1uM
CC(=O)N1CCN(S(=O)(=O)c2cccc(C(=O)NNC(=O)COc3ccc(F)cc3)c2)CC1	5.66%
O=C(CSc1ccccn1)N/N=C/c1ccccc1[N+](=O)[O-]	-6.73%
Cc1nnc2ccc(N3CCCC3)nn12	11.1%
COc1ccc(NC(=O)CSc2nc3scc(C)c3c(=O)[nH]2)cc1	5.48%
Cc1cccc(NC(=O)[C@@H]2CCCN2C(=O)OC(C)(C)C)c1C	6.11%
O=C(O)c1ccc(NS(=O)(=O)c2cccc(C(=O)Nc3ccc([N+](=O)[O-])cc3)c2)cc1	16.7%
COc1cccc(C(=O)c2c[nH]c(C(=O)NCCCN(C)C)c2)c1	8.91%
O=C(CNCC1CCCCC1)Nc1cccc(S(=O)(=O)N2CCOCC2)c1	12.7%
CCN(CC(=O)Nc1c(F)cccc1F)C(=O)c1ccc(S(=O)(=O)N2CCCCC2)cc1	3.07%
COCCn1c(SCC(=O)Nc2cccc(C)n2)nnc1-c1ccco1	12.8%
Cc1c(N=Cc2ccc(Cl)o2)c(=O)n(-c2ccccc2)n1C	4.28%
CCOc1ccc(-c2n[nH]c(C)c2Oc2ccccc2OC)c(O)c1	12.4%
COc1cc([N+](=O)[O-])ccc1-c1ccc(/C=N/NC(N)=O)o1	12.3%
N#C/C(=C1/C(=O)Nc2ccc(Br)cc21)c1ccccn1	11.6%
CCN1CCN(C(=O)CN(CC)S(=O)(=O)c2ccc3ccccc3c2)CC1	8.7%
CCN(CC)CCNC(=O)C(=O)Nc1ccc2c(c1)N(S(=O)(=O)c1cccs1)CCC2	-23.6%
CCCc1cc(=O)n2nc(N3CCC(C(=O)Nc4c(F)c(F)c(F)c(F)c4F)CC3)sc2n1	-2.57%
O=C(CSc1nc2ccccc2c(=O)n1CCCO)NC1CC1	4.35%
CCC(CC)C(=O)OCC(=O)Nc1cc(OC)c([N+](=O)[O-])cc1C	-7.12%
COC(=O)c1cc(COc2ccc3oc(C)c(C(=O)OC)c3c2)c(C)o1	5.44%
CC1CCN(C(=O)c2ccc(NC(=O)CC3SC(N4CCCC4)=NC3=O)cc2)CC1 (centres unmarked)	17.1%
O=C(NCCCN1CCOCC1)c1onc(CSc2ccncc2)c1C(=O)NCCCN1CCOCC1	3.33%
